Measurements taken from PubChem BioAssay AID1508623 (National Center for Advancing Translational Sciences (NCATS), 2021).
Among all 48,000 compounds or so, about 450 (0.94%) were called active. Another 19% or so got no clear call; they are omitted. The call rests on the fitted dose curve; in most records, active means well fitted inhibition curve with a large enough effect; inconclusive means small, poorly fitted or top-dose-only effect; inactive means no such curve, though single readings can be large or run the other way. Some of the results follow.

Test: Primary qHTS for Identification of Small Molecule Inhibitors of Huntingtin Promoter Activity; further: nearly all actives have a fitted effect of over 50% in size
Conditions: HEK293 HTT promoter firefly luciferase reporter (activity 0% = vehicle and -100% = no light), 24 h; series mostly up to 57.5 µM; activity change, negative = inhibition: at the top concentration
Summary of the method: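 Firefly luciferase signal from promoter-reporter HEK293 cells was scaled between vehicle (0%) and zero RLU (-100%). Compounds were tested at final concentrations of up to 57.5 uM over 24 h at 37 degrees C. PTC124 at 50 uM final served as control inhibitor.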

Activity change, negative = inhibition, inactive:
COc1ccc(-c2nc3scc(CCNS(=O)(=O)c4ccccc4F)n3n2)cc1 -24.3%
CCN1CCN(c2ncnc3c2cnn3-c2ccc(C)c(Cl)c2)CC1 29%
COc1ccc(-c2noc(-c3ccc(N4CCCC4)c([N+](=O)[O-])c3)n2)cc1 -20.8%
O=C(CCS(=O)(=O)c1nc(-c2ccc3c(c2)OCO3)cc(C(F)(F)F)n1)Nc1ccccc1F 5.67%
CCN(C(=O)CCn1cnc2onc(-c3ccc(F)cc3)c2c1=O)c1ccc(OC)cc1 -19.2%
COc1ccc(Nc2nc3ccccc3c3nnc(C)n23)cc1Cl 2.25%
CCc1cccc(-n2nnc(-c3nc(-c4ccccc4Cl)no3)c2N)c1 0.65%
Cc1ccc(NC(=O)CSc2cn(CC(=O)N3CCCCCC3)c3ccccc23)cc1 -22%
CCCCCCCCCCCCCCCCCCOCC(O)CO (configuration not stated) 17%
Cc1cccc(N2CCN(C(=O)c3cnn(-c4cccc(Cl)c4C)c3C3CCNCC3)CC2)c1C -13.1%
CN1Cc2cc(C(=O)N3CCC(C4CCNCC4)CC3)ccc2NC(CC(=O)O)C1=O (configuration not stated) 0.326%
Cn1nnc2c(NCCc3ccccc3)ncnc21 -9%
CC(C)c1ccc(NC(=O)c2cccc3c2C(=O)N(C2CCCCC2)C3)cc1 -16.9%
CCCc1nc2ccccc2n2c(-c3ccc(C)cc3)c3c(=O)n(C)c(=O)n(C)c3c12 -5.24% [at 11.5 µM]
Cc1ccc2c(c1)N(CC(=O)NCc1ccccc1Br)C(=O)c1cccnc1O2 -2.38%
CCOCCCNC(=O)C(c1ccc(C)cc1)N(Cc1cccs1)C(=O)c1ccc(NC(C)=O)cc1 (configuration not stated) -13%
C[N+]1(C)CCC(OC(=O)C(O)(c2ccccc2)C2CCCC2)C1 (configuration not stated) -3.9%
C[N+](C)(CCOc1ccccc1)Cc1cccs1 5%
COc1ccccc1NC(=O)c1c(NC(=O)c2ccco2)sc2c1CCC(C(C)(C)C)C2 (configuration not stated) -9.32%
CCSc1ncc(Cl)c(C(=O)Nc2c(C(=O)c3ccc(C)c(F)c3)oc3ccccc23)n1 1.11%
COc1ccc(N2CC(NC(=O)c3cc4ccccc4o3)CC2=O)cc1OC (configuration not stated) -20.1%
COc1cc(/C=C(\C#N)C(=O)Nc2ccc(C)cc2)ccc1OCc1cc(=O)n2nc(C)sc2n1 -4.69%
Cc1ccc(NC(=O)Cn2c(=O)n(CCc3ccccc3)c(=O)c3c4c(sc32)CCCC4)c(C)c1 1.08%
O=c1oc2ccc(Br)cc2cc1-c1csc(-c2ccccc2)n1 8.3%
CCOC(=O)c1cc(NC(=O)c2ccc(C)cc2)c(=O)n2c1oc1ccc(Cl)cc12 -11.6%
COC(=O)c1ccc(NC(=O)c2cc(=O)c3ccc(C)cc3o2)cc1 1.58% [at 11.5 µM]
C=C1C[C@@]2(O)O[C@@]3(C[C@H]2C(C)C)[C@H](C)CC[C@H]13 -1.68%
CN(C(=O)C1=CC(c2ccc3c(c2)OCO3)=NS(=O)(=O)N1C)c1ccccc1 -15.6%
O=C(CSc1nc2c(c(=O)[nH]1)CN(Cc1ccc3c(c1)OCO3)CC2)Nc1cccc(Cl)c1 -26.8%
CCCC(=O)Nc1nnc2n1CCS2 6.43%
Cc1nc2c(c(C)nn2-c2ccccc2)c(C)c1CCC(=O)NCCc1ccccc1 -1.49%
Cn1nnc2c(NCc3ccccc3Cl)ncnc21 -3.19%
CCOC(=O)c1noc2ncnc(N3CCC(C)CC3)c12 -21.5%
CCOc1ccc(Oc2nc(NC)nc(N3CCOCC3)n2)nn1 16.9%
COc1ccc(CC(=O)NCc2nc3cccnc3n2Cc2ccc(C)cc2)cc1OC -13.8%
Cc1cccc(Cn2cc3c(=O)n(CC(=O)Nc4ccc(C)c(F)c4)nc-3c3cc(F)ccc32)c1 -3.78%
Cc1ccc(Cn2c(=O)n(CCCC(=O)NCc3ccccc3Cl)c(=O)c3ccccc32)cc1 -5.08%
COc1ccc(OC)c(NC(=O)c2c(NCc3cccs3)sc3c2CCCC3)c1 -22.6%
COC(=O)c1cnc(N2CCN(c3ccccc3F)CC2)c2ccccc12 3.4%
Cc1ccc(NC(=O)C2CCN(c3nc4ccccc4[nH]3)CC2)c(C)c1 6.9%
CCc1ccccc1NC(=O)c1cc(S(=O)(=O)N2CCCC2)cn1C -2.99%
Cc1cccc(N2CCN(C(=O)CCc3c(C)nc4ncnn4c3C)CC2)c1C -26.7%
COc1ccccc1NC(=O)NCCN1CCN(c2cccc(Cl)c2)CC1 -10.7%
CC(C)c1cccc(C(C)C)c1NC1=NS(=O)(=O)c2ccccc21 -24.4%
COc1ccc(OC)c(NC(=O)CN2C(=O)COc3ccc(S(=O)(=O)NC4CCCC4)cc32)c1 -21%
CN(CC(=O)Nc1cccc(C(F)(F)F)c1)S(=O)(=O)c1cccs1 -10.5%
CCOc1ccc(S(=O)(=O)Nc2ccc3c(c2)N(C(C)=O)CCC3)cc1 -24.4%
CCOc1ccccc1NC(=O)c1cc2c(=O)oc3ccccc3c2s1 7.13%
Cc1ccc(/C=C/c2nc3ccccc3[nH]2)cc1 -68%
CCc1ccc(NC(=O)CCS(=O)(=O)c2ccc3c(c2)n(C)c(=O)c(=O)n3C)cc1 -14.9%
CCC(Cn1nnc2ccccc2c1=O)NC(=O)Nc1ccc(C)c(C)c1 (configuration not stated) -0.0854%
COCCCNC(=O)CSc1nc2cc(OC)c(OC)cc2c2nc(-c3ccccc3)nn12 0.879%
CS(=O)(=O)CCC(C(=O)Nc1cccc(C(F)(F)F)c1)N1Cc2ccccc2C1=O (configuration not stated) -24.5%
O=C(c1ccco1)c1cn(CCOc2ccc(F)cc2)c2ccccc12 -10.6%
Cc1ccc(OCc2nc3ccccc3n2CCOc2ccc(Cl)cc2)cc1 -22.2%
Cc1ccc(-c2nc(SCC(=O)NCc3ccco3)c3c(=O)n(C)c(=O)n(C)c3n2)cc1 -2.65%
CC(C)c1ccc(NC(=O)Cn2c(=O)n(CCc3ccccc3)c(=O)c3ccccc32)cc1 -6.31%
CCc1cccc(CC)c1NC(=O)CN1C(=O)C(=O)c2ccccc21 -11%
Cc1c(Cn2ccnc2)c2ccccc2n1CCC(=O)O 8.75%
Cc1ccc(NC(=O)CC(C)S(=O)(=O)c2ccc3c(c2)NC(=O)CO3)cc1Cl (configuration not stated) 6.67%
CCc1ccc(NC(=O)C(CC)n2c(=O)c(C(F)(F)F)nc3ccccc32)cc1 (configuration not stated) -9.08%
Cc1nc2nc(SCC(=O)NCc3ccccc3Cl)nn2c(C)c1Cc1ccccc1 -28%
CCc1nc(-c2cc(S(=O)(=O)N3CCN(c4ccccc4OC)CC3)ccc2OC)no1 -21.1%
COc1cc(Cl)c(C)cc1Nc1ncnc2c1nc1n2CCCC1 12.5%
CCOC(=O)Cn1c(=O)c2c(nc3n2CCN3c2ccc(CC)cc2)n(C)c1=O -2.62%
COc1ccc(Cl)cc1NC(=O)CN1C(=O)COc2ccc(S(=O)(=O)NC3CCCC3)cc21 -0.975%
Cc1ccc(Nc2nn3c(=O)c4cc5c(cc4nc3s2)OCO5)cc1Cl -6.48%
CCCCN(CC)CCNC(=O)Cn1cc2c(n1)-c1c(oc(C(=O)N3CCCC3)c1C)CC2 -0.553%
CN(C(=O)CSc1cn(CC(=O)N2CCOCC2)c2ccccc12)c1ccccc1 9.74%
CC(=O)N1CCCc2cc(S(=O)(=O)N3CCC(C(=O)NCc4cccc(C)c4)CC3)ccc21 -25.6%
COc1cccc(Cn2c(=O)n(Cc3ccco3)c(=O)c3oc4ccccc4c32)c1 -1.05%
CCCOc1cccc(C(=O)N(Cc2ccc(C)o2)C2CCS(=O)(=O)C2)c1 (configuration not stated) -16.1%
CC(=O)Nc1ccc(NC(=O)CSc2nccn2C)cc1 -16.4%
COCCNc1sc(S(=O)(=O)c2ccc(C)cc2)nc1S(=O)(=O)c1ccc(C)cc1 -4.74%
N#Cc1ccc(C(c2ccc(C#N)cc2)n2cncn2)cc1 -13.5%
CCOC(=O)c1cc2c(=O)n3ccccc3nc2n(CC(C)C)c1=NC(=O)c1c(-c2c(F)cccc2Cl)noc1C -4.81%
CCCN(C(=O)c1noc2c1COc1ccc(C)cc1-2)c1ccc(Cl)c(Cl)c1 -13.8%
COC(=O)c1ccccc1NC(=O)c1c(NC(=O)c2ccco2)sc2c1CCC(C(C)(C)C)C2 (configuration not stated) -29.1% [at 11.5 µM]
COc1ccc(Cn2c(C(=O)O)c(CNCCc3cccs3)c3ccc(C)cc32)cc1 -19.5%
COc1ccccc1CNC(=O)c1ccc2c(c1)N(Cc1cccc(Cl)c1)C(=O)c1ccccc1S2(=O)=O -11.6%
Cc1ccc(Cn2c(C(=O)O)c(CNC3CCCCCC3)c3ccc(C)cc32)cc1 -2.9%
CC(=O)c1ccc(NC(=O)Cn2c(=O)c3cccn3c3ccccc32)cc1 -7.06%
Cc1ccc(NC(=O)Cn2c(=O)n(CCC(=O)N3CCc4ccccc4C3)c(=O)c3ccccc32)cc1 -9.59%
Cc1oc2ncn(CC(C)C)c(=O)c2c1C(=O)Nc1cc(F)ccc1F 0%
COc1ccc(-n2nc3c(N4CCCC(C(=O)NCc5cccc(F)c5)C4)nnc(C)c3c2C)cc1 (configuration not stated) -29%
O=C(NN1CCCC1)NS(=O)(=O)c1ccc(Cl)cc1 0.893%
Cc1ccc(C)c(OCCn2cc(C(=O)c3ccco3)c3ccccc32)c1 -3.04%
CCn1c(CNC(=O)C23CC4CC(CC(C4)C2)C3)nnc1SCC(=O)Nc1ccccc1 -23.3%
COc1c2occc2cc2ccc(=O)oc12
Cc1oc2ncn(C)c(=O)c2c1C(=O)N1CCN(c2ccccc2)CC1 28.4%
O=C(Oc1ccc(F)cc1)c1nc(SCc2ccccc2F)ncc1Cl -5.58%
COc1ccccc1C(=O)NC1(C(F)(F)F)C(=O)Nc2c1c(=O)[nH]c(=O)n2-c1ccccc1 (configuration not stated) -6.68%
Cn1c(=O)c2c([nH]c(=O)n2Cc2ccc(Cl)cc2Cl)n(C)c1=O -2.19%
Cc1ccc2c(c1)-c1nc(-c3ccc4c(c3)NC(=O)CO4)cc(-c3ccc(Cl)cc3)c1CO2 -11.4%
COc1ccc2c(OCc3nnc4ccc(-c5ccccc5)nn34)ccnc2c1 -1.48%
Cc1ccc2nc(N3CCN(C(=O)C4CC4)CC3)sc2c1 43.7%
CC1CCCN(CCCNC(=O)c2cn(C)c3ccc(S(=O)(=O)N(C)C4CCCCC4)cc3c2=O)C1 (configuration not stated) -20% [at 11.5 µM]
